The source of these data is the RNAGym collection of RNA variant scans (doi:10.7554/elife.90254).

The labels stand for the following.
B1: LINE1-mini (parent)
chain: GGCAGAGCUCAACACAGCGUGGCAAAGUGGCUGUGGCUAGACUGCC

Read counts are not given, so values of variants with three or more changes are uncertain.

The variants in this data set derive from B1. The data set can be described thus: self-cleavage, relative activity (ratio to wild type); higher = more cleavage; in vitro, sequencing; the parent is a self-cleaving ribozyme.
With G1U C8G A11C, the self-cleavage stood at 0.01.
Under G1U A6U C45G stands 0.34; under G1U C3U A6C C10A, 0.2; under G1U A12C A25U A26U, 0.01.
In the case of G1U C18A C31G G33C A39G it was 0.03; in that of G1U A26U G35C C37U C45U, 0.
In the case of G1U A16U G17U C42U, the self-cleavage stood at 0.01.
For G1U C3G U28G G30U U34G U38G, the self-cleavage was determined as 0.01.
For the variant G1U A11C G40A C42G, the self-cleavage stood at 0.
Take G1U C3U A4C C13U C31G G33A: the self-cleavage came out at 0.02.
Regarding G1U A39C A41G, the self-cleavage was found to be 0.02.
For the variant G1U C23A G36U, the self-cleavage came to 0.02.
On to G1U C8A A16G U20G G35A G36A, for which the self-cleavage turned out to be 0.03.
As for G1U A16G G21A G22C U32G, the self-cleavage came to 0.01.
G1U C10A G17U G35A: the self-cleavage stood at 0.01.
In the case of G1U A26U G33A G44U C45U C46G it was 0.02; in that of G1U A24C G30A G35A G36A U38G, 0.01.
For the variant G1U C15G U20C A25C G33U, the self-cleavage is 0.01.
In the case of G1U A12U C13U A26U it was 0.04; in that of G1U C18G G22C U43A, 0; in that of G1U C31G U34C, 0.05.
As to G1U A16C G17A G40C, the self-cleavage worked out at 0.04.
With G1U A11C G27U G29C U43C, the self-cleavage is 0.01.
Regarding G1U C10A C37A A39C, the self-cleavage came out at 0.03.
For G1U A6U C10A G30C, the self-cleavage was found to be 0.03.
In the case of G1U C10G G19A A26U C37U it was 0.01.
As to G1U C8G C13U G40U, the self-cleavage amounted to 0.06.
As for G1U A16C G33U C37U A41U, the self-cleavage amounted to 0.02.
Take G1U A41U C42U: the self-cleavage amounted to 0.01.
With G1U C31U G44C, the self-cleavage worked out at 0.08.
Take G1U A14C U32G G40C: the self-cleavage amounted to 0.01.
G1U C10A A12U G36U: the self-cleavage is 0.
Under G1U C10U G21A stands 0.43; under G1U A6U C10A A26U U34A, 0.03.
With G1U C13A A26C, the self-cleavage is 0.28.
Consider G1U A16C G29U, for which the self-cleavage turned out to be 0.05.
G1U C3U G19C: the self-cleavage stood at 0.05.
Take G1U C8G A12C G30A: the self-cleavage is 0.02.
For G1U C3A G33A U38G U43A, the self-cleavage is 0.15.
As to G1U C3U A4C A11C G17A G21C U34G, the self-cleavage is 0.02.
Consider G1U A16U G30C U43C C45A, for which the self-cleavage came out at 0.01.
With G1U A26C G29C G33C, the self-cleavage worked out at 0.01.
Consider G1U A26G U43A, for which the self-cleavage came out at 0.05.
Under G1U C15A A24U G36U stands 0.14; under G1U C8A G17U G22U, 0.07.
Turning to G1U C10A C45A, the self-cleavage was 0.01.
On to G1U C10G C37A, for which the self-cleavage was determined as 0.01.
With G1U C8U A14U, the self-cleavage was 0.06.
Regarding G1U A14U U32G G33C C42G, the self-cleavage came to 0.03.
As for G1U A25G A26G U28A, the self-cleavage is 0.03.
Take G1U C3G C31A A39U G44C C46U: the self-cleavage was 0.02.
Under G1U C10U G17U G36U C42U stands 0.01.
Take G1U C10A C31G: the self-cleavage was found to be 0.02.
With G1U C8G C13A G35U A41C, the self-cleavage was determined as 0.02.
In the case of G1U A14C G29U U34A it was 0.01; in that of G1U C3G U9G A25C A41U, 0.04; in that of G1U C37U C46A, 0.08.
Turning to G1U C3A G17A G22A U43A, the self-cleavage worked out at 0.32.
As for G1U C8A U9A A16G G29U U32A C45A, the self-cleavage stood at 0.02.
With G1U G2A C13A A39C, the self-cleavage was 0.43.
Take G1U C8A G22U G44C: the self-cleavage is 0.18.
With G1U C8A U20A G21C G22A G29C U32A C46A, the self-cleavage turned out to be 0.02.
Regarding G1U G2A A6U, the self-cleavage is 0.44.
Under G1U C15U C23A stands 0.64; under G1U C8A G19A G44C, 0.01.
On to G1U A12G G17C C18A C45A, for which the self-cleavage is 0.
G1U A6U C13U G17U G22C: the self-cleavage stood at 0.06.
Regarding G1U C15A A39G A41G C42A, the self-cleavage turned out to be 0.05.
Take G1U C15G G33A G36C G44A: the self-cleavage is 0.01.
Regarding G1U C10G C13A C15A A26C, the self-cleavage was 0.01.
For the variant G1U C18G C23G C46U, the self-cleavage was 0.02.
In the case of G1U A14G A26U, the self-cleavage worked out at 0.27.
In the case of G1U C3G A24U it was 0.04; in that of G1U C3A A12G A14G A26C C46A, 0.04.
Turning to G1U C10G A14U A39G, the self-cleavage was 0.01.
Regarding G1U C10A G27C G44U, the self-cleavage was 0.
G1U A6U C31U: the self-cleavage was determined as 0.05.
For the variant G1U C10G G27C U28C, the self-cleavage is 0.04.
With G1U C10A A16U G29U, the self-cleavage turned out to be 0.01.
On to G1U C10G A25U U34G, for which the self-cleavage amounted to 0.02.
For G1U A14G C45G, the self-cleavage worked out at 0.03.
As to G1U C10G C42G, the self-cleavage is 0.
In the case of G1U A6U C10U U34C C45G it was 0.02; in that of G1U C10A G33U, 0.02.
On to G1U C3G A24G G27U G40A C42U, for which the self-cleavage turned out to be 0.08.
In the case of G1U A11C G40C A41G it was 0.
Turning to G1U A16G G17A, the self-cleavage worked out at 0.21.
As for G1U C8U G30A, the self-cleavage is 0.23.
For G1U C3U A26C, the self-cleavage was 0.21.
In the case of G1U C15A A16U it was 0.1; in that of G1U C18G C37G, 0.03.
Under G1U G2A C10A C18G G30C stands 0.01; under G1U C13A U43C, 0.05; under G1U C3U C23U A24G G33A G36U C45A, 0.02.
As to G1U C15G G30U, the self-cleavage stood at 0.02.
On to G1U G2A C18U U34G A39U C42A, for which the self-cleavage was determined as 0.02.
Consider G1U C13A U20A A26U C42U C45U, for which the self-cleavage turned out to be 0.
Regarding G1U G2A C3U A24C, the self-cleavage was 1.31.
As for G1U A12U G19C U34G, the self-cleavage came out at 0.02.
With G1U C10A A39C G44A, the self-cleavage came out at 0.01.
For the variant G1U C8G C15A A16G, the self-cleavage was found to be 0.03.
Regarding G1U A12C G19U G21C, the self-cleavage is 0.
As for G1U C18A C37U U38C C42G, the self-cleavage came out at 0.02.
Regarding G1U C10U A14G G30C C46G, the self-cleavage stood at 0.01.
For G1U A6U G33C A39U G40A C46G, the self-cleavage turned out to be 0.05.
Consider G1U A14U C15G, for which the self-cleavage came out at 0.02.
Take G1U G2A A6C C13G C15G U38C: the self-cleavage is 0.02.
Turning to G1U A26C G35U, the self-cleavage worked out at 0.05.
As for G1U A16G G17C G40A U43A, the self-cleavage came to 0.07.
As to G1U C15A G30U, the self-cleavage came out at 0.05.
With G1U A14G G33A, the self-cleavage was determined as 0.05.
Regarding G1U C8G G17U, the self-cleavage turned out to be 0.02.
Consider G1U A24G G36U U43A, for which the self-cleavage was 0.01.
On to G1U C37U G40U, for which the self-cleavage came out at 0.08.
Consider G1U C10U C18A G35U C45A, for which the self-cleavage was found to be 0.02.
For G1U C8U A26G, the self-cleavage is 0.09.
On to G1U G2A C10U A25U, for which the self-cleavage turned out to be 0.12.
With G1U C8G A11U C13G G29A, the self-cleavage is 0.01.
Regarding G1U A6U A25U G40A, the self-cleavage is 0.02.
G1U C23U U34G C37U A39G: the self-cleavage was 0.02.
On to G1U C13U C37U C42A, for which the self-cleavage worked out at 0.07.
Under G1U C23A U28G G35A stands 0.03.
In the case of G1U A12C A25G G29C it was 0.01; in that of G1U C15U C23G U32C G35A C46A, 0.03.
For G1U A12C U20C U28G C46G, the self-cleavage turned out to be 0.
Consider G1U C3G C31G, for which the self-cleavage is 0.06.
With G1U A14G G21U U28G C45U, the self-cleavage is 0.03.
For the variant G1U C8U C13A C23A, the self-cleavage came to 0.05.
For G1U C3U G7U G33U G44A, the self-cleavage worked out at 0.22.
With G1U A25G A26U, the self-cleavage was 0.01.
G1U A6U C10G C42A: the self-cleavage came out at 0.03.
As to G1U C18A G33A, the self-cleavage came out at 0.02.
For the variant G1U A25C A26U, the self-cleavage came to 0.05.
With G1U C23U C42A, the self-cleavage came to 0.
As for G1U C3U G17A C42A, the self-cleavage turned out to be 0.26.
Regarding G1U C23G U34G C46A, the self-cleavage came to 0.29.
In the case of G1U C3A C10A it was 0.09; in that of G1U A16C G33U G35U, 0.07.
Under G1U C3U U9G C13A U20A G21C A24G A26U U32G stands 0.06; under G1U C18U C46U, 1.43; under G1U C23U G36U, 0.03.
In the case of G1U C8A A11U G21U it was 0.02; in that of G1U C3G A25U C37A, 0.08.
In the case of G1U A26U C31U U43C, the self-cleavage stood at 0.06.
Regarding G1U C13A A14G G21C G40U A41U, the self-cleavage worked out at 0.01.
Turning to G1U C18G G30U, the self-cleavage came out at 0.18.
Turning to G1U C10A G27C U28C G33U G40A, the self-cleavage was 0.03.
In the case of G1U C10A G21U U32C it was 0.02; in that of G1U C23U C31G G40A, 0.01.
As for G1U C10A C13U G22C, the self-cleavage is 0.01.
For G1U A14G C15U G27U G30C G33A, the self-cleavage turned out to be 0.02.
As to G1U G2A C18U A26G G35A C42A, the self-cleavage came out at 0.04.
Consider G1U C3A A12C C15U, for which the self-cleavage came out at 0.02.
For the variant G1U C45U C46A, the self-cleavage is 0.29.
On to G1U C15A G17C U43C C46G, for which the self-cleavage was determined as 0.02.
In the case of G1U C23G G27C G33A C46A it was 0.57.
In the case of G1U C15A U34G C42U G44C it was 0.03; in that of G1U C10U A11G A26C C31A C37U C46G, 0.01; in that of G1U C13U C31A, 0.05.
On to G1U A14G G19C, for which the self-cleavage was determined as 0.11.
As to G1U A12G U38G, the self-cleavage worked out at 0.
For the variant G1U A16U G17U G27A U34C, the self-cleavage came to 0.08.
As to G1U C3U U9A C13U G17U G29A U32G, the self-cleavage came to 0.23.
As for G1U A25C G27U G29C C45A, the self-cleavage was found to be 0.24.
In the case of G1U A12C G27C G29A U34G, the self-cleavage amounted to 0.01.
On to G1U A16C G17A C18A G29U G30U C37U, for which the self-cleavage came to 0.04.
Take G1U C8G U32C: the self-cleavage came out at 0.01.
